# Experimental data from the supplement of paper PMC8728848.
# This is one part of the list.
# Experiments:
# Assay in all cases: glycan array binding signal (z-score within array); higher = stronger binding
# Conditions in all cases: glycan notation: IUPAC condensed, linker removed
# [1] = target: Neu5Ac(a2-3)Gal(b1-3)[Fuc(a1-4)]GlcNAc(b1-3)Gal(b1-4)[Fuc(a1-3)]GlcNAc
# In short: (§1)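 Negative Z-scores can be read as non-binding. The Z-score is calculated within each array and then averaged across arrays of one protein sequence at different concentrations or buffers and across linkers. Arrays, 3228 in all, were curated from the Consortium for Functional Glycomics database and kept only where the protein sequence was available.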
# [2] = target: Neu5Ac(a2-3)Gal(b1-3)[Neu5Ac(a2-3)Gal(b1-4)]GlcNAc
# In short: as §1
# [3] = target: Neu5Ac(a2-3)Gal(b1-3)[Neu5Ac(a2-6)]GalNAc
# In short: as §1
# Neu5Ac(a2-3)Gal(b1-4)Glc = target: Neu5Ac(a2-3)Gal(b1-4)Glc
# In short: as §1
# [4] = target: Neu5Ac(a2-3)Gal(b1-4)GlcNAc
# In short: as §1
# [5] = target: Neu5Ac(a2-3)Gal(b1-4)GlcNAc(b1-2)Man(a1-3)[GlcNAc(b1-2)Man(b1-4)GlcNAc(b1-2)Man(a1-6)]Man(b1-4)GlcNAc(b1-4)GlcNAc
# In short: as §1
# [6] = target: Neu5Ac(a2-3)Gal(b1-4)GlcNAc(b1-2)Man(a1-3)[Neu5Ac(a2-6)Gal(b1-4)GlcNAc(b1-2)Man(a1-6)]Man(b1-4)GlcNAc(b1-4)GlcNAc
# In short: as §1
# [7] = target: Neu5Ac(a2-3)Gal(b1-4)GlcNAc(b1-3)Gal(b1-3)GlcNAc
# In short: as §1
# [8] = target: Neu5Ac(a2-3)Gal(b1-4)GlcNAc(b1-3)Gal(b1-4)GlcNAc
# In short: as §1
# [9] = target: Neu5Ac(a2-3)Gal(b1-4)GlcNAc(b1-3)Gal(b1-4)GlcNAc(b1-3)Gal(b1-4)GlcNAc
# In short: as §1
# [10] = target: Neu5Ac(a2-3)Gal(b1-4)GlcNAc(b1-3)Gal(b1-4)[Fuc(a1-3)]GlcNAc
# In short: as §1
# [11] = target: Neu5Ac(a2-3)Gal(b1-4)GlcNAc(b1-6)[Gal(b1-3)]GalNAc
# In short: as §1
# [12] = target: Neu5Ac(a2-3)Gal(b1-4)GlcNAc(b1-6)[Neu5Ac(a2-3)Gal(b1-3)]GalNAc
# In short: as §1
# [13] = target: Neu5Ac(a2-3)Gal(b1-4)GlcNAc6S
# In short: as §1
# [14] = target: Neu5Ac(a2-3)Gal(b1-4)[Fuc(a1-3)]GlcNAc
# In short: as §1
# [15] = target: Neu5Ac(a2-3)Gal(b1-4)[Fuc(a1-3)]GlcNAc(b1-3)Gal
# In short: as §1
# [16] = target: Neu5Ac(a2-3)Gal(b1-4)[Fuc(a1-3)]GlcNAc(b1-3)Gal(b1-4)GlcNAc
# In short: as §1
# [17] = target: Neu5Ac(a2-3)Gal(b1-4)[Fuc(a1-3)]GlcNAc(b1-3)Gal(b1-4)[Fuc(a1-3)]GlcNAc(b1-3)Gal(b1-4)[Fuc(a1-3)]GlcNAc
# In short: as §1
# [18] = target: Neu5Ac(a2-3)Gal(b1-4)[Fuc(a1-3)]GlcNAc(b1-6)[Gal(b1-3)]GalNAc
# In short: as §1
# [19] = target: Neu5Ac(a2-3)Gal(b1-4)[Fuc(a1-3)]GlcNAc6S
# In short: as §1
# [20] = target: Neu5Ac(a2-3)Gal6S(b1-4)GlcNAc
# In short: as §1
# [21] = target: Neu5Ac(a2-3)Gal6S(b1-4)[Fuc(a1-3)]GlcNAc
# In short: as §1
# Neu5Ac(a2-3)GalNAc = target: Neu5Ac(a2-3)GalNAc
# In short: as §1
# [22] = target: Neu5Ac(a2-3)GalNAc(b1-4)GlcNAc
# In short: as §1
# [23] = target: Neu5Ac(a2-3)[GalNAc(b1-4)]Gal(b1-4)Glc
# In short: as §1
# [24] = target: Neu5Ac(a2-3)[GalNAc(b1-4)]Gal(b1-4)GlcNAc
# In short: as §1
# [25] = target: Neu5Ac(a2-3)[Neu5Ac(a2-6)]GalNAc
# In short: as §1
# Neu5Ac(a2-6)Gal = target: Neu5Ac(a2-6)Gal
# In short: as §1
# Neu5Ac(a2-6)Gal(b1-4)Glc = target: Neu5Ac(a2-6)Gal(b1-4)Glc
# In short: as §1
# [26] = target: Neu5Ac(a2-6)Gal(b1-4)GlcNAc
# In short: as §1
# [27] = target: Neu5Ac(a2-6)Gal(b1-4)GlcNAc(b1-2)Man(a1-3)[Gal(b1-4)GlcNAc(b1-2)Man(a1-6)]Man(b1-4)GlcNAc(b1-4)GlcNAc
# In short: as §1
# [28] = target: Neu5Ac(a2-6)Gal(b1-4)GlcNAc(b1-2)Man(a1-3)[GlcNAc(b1-2)Man(a1-6)]Man(b1-4)GlcNAc(b1-4)GlcNAc
# In short: as §1
# [29] = target: Neu5Ac(a2-6)Gal(b1-4)GlcNAc(b1-2)Man(a1-3)[GlcNAc(b1-2)Man(b1-4)GlcNAc(b1-2)Man(a1-6)]Man(b1-4)GlcNAc(b1-4)GlcNAc
# In short: as §1
# [30] = target: Neu5Ac(a2-6)Gal(b1-4)GlcNAc(b1-2)Man(a1-3)[Neu5Ac(a2-6)Gal(b1-4)GlcNAc(b1-2)Man(a1-6)]Man(b1-4)GlcNAc(b1-4)GlcNAc
# In short: as §1
# [31] = target: Neu5Ac(a2-6)Gal(b1-4)GlcNAc(b1-2)Man(a1-6)[Gal(b1-4)GlcNAc(b1-2)Man(a1-3)]Man(b1-4)GlcNAc(b1-4)GlcNAc
# In short: as §1
# [32] = target: Neu5Ac(a2-6)Gal(b1-4)GlcNAc(b1-2)Man(a1-6)[GlcNAc(b1-2)Man(a1-3)]Man(b1-4)GlcNAc(b1-4)GlcNAc
# In short: as §1
# [33] = target: Neu5Ac(a2-6)Gal(b1-4)GlcNAc(b1-3)Gal(b1-4)GlcNAc
# In short: as §1
# [34] = target: Neu5Ac(a2-6)Gal(b1-4)GlcNAc(b1-3)Gal(b1-4)[Fuc(a1-3)]GlcNAc(b1-3)Gal(b1-4)[Fuc(a1-3)]GlcNAc
# In short: as §1
# [35] = target: Neu5Ac(a2-6)Gal(b1-4)GlcNAc6S
# In short: as §1
# Neu5Ac(a2-6)GalNAc = target: Neu5Ac(a2-6)GalNAc
# In short: as §1
# [36] = target: Neu5Ac(a2-6)GalNAc(b1-4)GlcNAc
# In short: as §1
# Neu5Ac(a2-8)Neu5Ac = target: Neu5Ac(a2-8)Neu5Ac
# In short: as §1
# [37] = target: Neu5Ac(a2-8)Neu5Ac(a2-3)Gal(b1-4)Glc
# In short: as §1
# [38] = target: Neu5Ac(a2-8)Neu5Ac(a2-3)[GalNAc(b1-4)]Gal(b1-4)Glc
# In short: as §1
# [39] = target: Neu5Ac(a2-8)Neu5Ac(a2-8)Neu5Ac
# In short: as §1
# [40] = target: Neu5Ac(a2-8)Neu5Ac(a2-8)Neu5Ac(a2-3)Gal(b1-4)Glc
# In short: as §1
# [41] = target: Neu5Ac(a2-8)Neu5Ac(a2-8)Neu5Ac(a2-3)[GalNAc(b1-4)]Gal(b1-4)Glc
# In short: as §1
# [42] = target: Neu5Ac(a2-8)Neu5Ac(a2-8)Neu5Ac(a2-8)Neu5Ac(a2-3)[GalNAc(b1-4)]Gal(b1-4)Glc
# In short: as §1
# [43] = target: Neu5Ac(b2-6)Gal(b1-4)GlcNAc
# In short: as §1
# Neu5Ac(b2-6)GalNAc = target: Neu5Ac(b2-6)GalNAc
# In short: as §1
# [44] = target: Neu5Ac9Ac(a2-6)Gal(b1-4)GlcNAc
# In short: as §1
# [45] = target: Neu5Gc(a2-3)Gal(b1-3)GlcNAc
# In short: as §1
# [46] = target: Neu5Gc(a2-3)Gal(b1-3)[Fuc(a1-4)]GlcNAc
# In short: as §1
# Neu5Gc(a2-3)Gal(b1-4)Glc = target: Neu5Gc(a2-3)Gal(b1-4)Glc
# In short: as §1
# [47] = target: Neu5Gc(a2-3)Gal(b1-4)GlcNAc
# In short: as §1
# [48] = target: Neu5Gc(a2-3)Gal(b1-4)[Fuc(a1-3)]GlcNAc
# In short: as §1
# [49] = target: Neu5Gc(a2-6)Gal(b1-4)GlcNAc
# In short: as §1
# Neu5Gc(a2-6)GalNAc = target: Neu5Gc(a2-6)GalNAc
# In short: as §1
# [50] = target: Neu5Gc(b2-6)Gal(b1-4)GlcNAc
# In short: as §1
binder,measurement,setting,value
"Angptl4 (Homo sapiens), Q9BY76 (protein) MSGAPTAGAALMLCAATAVLLSAQGGPVQSKSPRFASWDEMNVLAHGLLQLGQGLREHAERTRSQLSALERRLSACGSACQGTEGSTDLPLAPESRVDPEVLHSLQTQLKAQNSRIQQLFHKVAQQQRHLEKQHLRIQHLQSQFGLLDHKHLDHEVAKPARRKRLPEMAQPVDPAHNVSRLHRLPRDCQELFQVGERQSGLFEIQPQGSPPFLVNCKMTSDGGWTVIQRRHDGSVDFNRPWEAYKAGFGDPHGEFWLGLEKVHSITGDRNSRLAVQLRDWDGNAELLQFSVHLGGEDTAYSLQLTAPVAGQLGATTVPPSGLSVPFSTWDQDHDLRRDKNCAKSLSGGWWFGTCSHSNLNGQYFRSIPQQRQKLKKGIFWKTWRGRYYPLQATTMLIQPMAAEAAS",glycan array binding signal (z-score),[1],-0.555
same,glycan array binding signal (z-score),[2],-0.227
same,glycan array binding signal (z-score),[3],-0.122
same,glycan array binding signal (z-score),Neu5Ac(a2-3)Gal(b1-4)Glc,-0.307
same,glycan array binding signal (z-score),[4],-0.156
same,glycan array binding signal (z-score),[5],-0.621
same,glycan array binding signal (z-score),[6],-0.917
same,glycan array binding signal (z-score),[7],-0.262
same,glycan array binding signal (z-score),[8],-0.92
same,glycan array binding signal (z-score),[9],-0.603
same,glycan array binding signal (z-score),[10],-0.334
same,glycan array binding signal (z-score),[11],-0.496
same,glycan array binding signal (z-score),[12],-0.58
same,glycan array binding signal (z-score),[13],-0.609
same,glycan array binding signal (z-score),[14],-0.335
same,glycan array binding signal (z-score),[15],-0.402
same,glycan array binding signal (z-score),[16],0.32
same,glycan array binding signal (z-score),[17],0.762
same,glycan array binding signal (z-score),[18],-0.006
same,glycan array binding signal (z-score),[19],-0.445
same,glycan array binding signal (z-score),[20],-0.282
same,glycan array binding signal (z-score),[21],-0.53
same,glycan array binding signal (z-score),Neu5Ac(a2-3)GalNAc,-0.954
same,glycan array binding signal (z-score),[22],-0.502
same,glycan array binding signal (z-score),[23],0.404
same,glycan array binding signal (z-score),[24],-0.209
same,glycan array binding signal (z-score),[25],-1.74
same,glycan array binding signal (z-score),Neu5Ac(a2-6)Gal,-0.048
same,glycan array binding signal (z-score),Neu5Ac(a2-6)Gal(b1-4)Glc,-0.017
same,glycan array binding signal (z-score),[26],-0.303
same,glycan array binding signal (z-score),[27],-0.209
same,glycan array binding signal (z-score),[28],-1.2
same,glycan array binding signal (z-score),[29],-0.039
same,glycan array binding signal (z-score),[30],-0.39
same,glycan array binding signal (z-score),[31],4.1
same,glycan array binding signal (z-score),[32],-0.229
same,glycan array binding signal (z-score),[33],0.126
same,glycan array binding signal (z-score),[34],0.162
same,glycan array binding signal (z-score),[35],-0.37
same,glycan array binding signal (z-score),Neu5Ac(a2-6)GalNAc,-0.481
same,glycan array binding signal (z-score),[36],-0.571
same,glycan array binding signal (z-score),Neu5Ac(a2-8)Neu5Ac,-0.276
same,glycan array binding signal (z-score),[37],-0.52
same,glycan array binding signal (z-score),[38],-0.089
same,glycan array binding signal (z-score),[39],-0.016
same,glycan array binding signal (z-score),[40],-0.308
same,glycan array binding signal (z-score),[41],-0.283
same,glycan array binding signal (z-score),[42],-0.488
same,glycan array binding signal (z-score),[43],-0.639
same,glycan array binding signal (z-score),Neu5Ac(b2-6)GalNAc,-0.549
same,glycan array binding signal (z-score),[44],0.033
same,glycan array binding signal (z-score),[45],0.002
same,glycan array binding signal (z-score),[46],-0.279
same,glycan array binding signal (z-score),Neu5Gc(a2-3)Gal(b1-4)Glc,0.478
same,glycan array binding signal (z-score),[47],-0.227
same,glycan array binding signal (z-score),[48],-0.161
same,glycan array binding signal (z-score),[49],-0.162
same,glycan array binding signal (z-score),Neu5Gc(a2-6)GalNAc,-0.426
same,glycan array binding signal (z-score),[50],0.207
